Results: paper PMC6073935
Results are given in words; binding and its absence hold for the method and conditions named. In cells and extracts the contact can be indirect. Some entries that bind do so weakly or less than the wild type. Sequences can lack the tags named with a protein.

Protein sequences, listed by entry. Tags and fused reporters are not part of them. Lines headed by an entry give the natural chain unless they say otherwise; changes in a name come on top.
UniProt P35670: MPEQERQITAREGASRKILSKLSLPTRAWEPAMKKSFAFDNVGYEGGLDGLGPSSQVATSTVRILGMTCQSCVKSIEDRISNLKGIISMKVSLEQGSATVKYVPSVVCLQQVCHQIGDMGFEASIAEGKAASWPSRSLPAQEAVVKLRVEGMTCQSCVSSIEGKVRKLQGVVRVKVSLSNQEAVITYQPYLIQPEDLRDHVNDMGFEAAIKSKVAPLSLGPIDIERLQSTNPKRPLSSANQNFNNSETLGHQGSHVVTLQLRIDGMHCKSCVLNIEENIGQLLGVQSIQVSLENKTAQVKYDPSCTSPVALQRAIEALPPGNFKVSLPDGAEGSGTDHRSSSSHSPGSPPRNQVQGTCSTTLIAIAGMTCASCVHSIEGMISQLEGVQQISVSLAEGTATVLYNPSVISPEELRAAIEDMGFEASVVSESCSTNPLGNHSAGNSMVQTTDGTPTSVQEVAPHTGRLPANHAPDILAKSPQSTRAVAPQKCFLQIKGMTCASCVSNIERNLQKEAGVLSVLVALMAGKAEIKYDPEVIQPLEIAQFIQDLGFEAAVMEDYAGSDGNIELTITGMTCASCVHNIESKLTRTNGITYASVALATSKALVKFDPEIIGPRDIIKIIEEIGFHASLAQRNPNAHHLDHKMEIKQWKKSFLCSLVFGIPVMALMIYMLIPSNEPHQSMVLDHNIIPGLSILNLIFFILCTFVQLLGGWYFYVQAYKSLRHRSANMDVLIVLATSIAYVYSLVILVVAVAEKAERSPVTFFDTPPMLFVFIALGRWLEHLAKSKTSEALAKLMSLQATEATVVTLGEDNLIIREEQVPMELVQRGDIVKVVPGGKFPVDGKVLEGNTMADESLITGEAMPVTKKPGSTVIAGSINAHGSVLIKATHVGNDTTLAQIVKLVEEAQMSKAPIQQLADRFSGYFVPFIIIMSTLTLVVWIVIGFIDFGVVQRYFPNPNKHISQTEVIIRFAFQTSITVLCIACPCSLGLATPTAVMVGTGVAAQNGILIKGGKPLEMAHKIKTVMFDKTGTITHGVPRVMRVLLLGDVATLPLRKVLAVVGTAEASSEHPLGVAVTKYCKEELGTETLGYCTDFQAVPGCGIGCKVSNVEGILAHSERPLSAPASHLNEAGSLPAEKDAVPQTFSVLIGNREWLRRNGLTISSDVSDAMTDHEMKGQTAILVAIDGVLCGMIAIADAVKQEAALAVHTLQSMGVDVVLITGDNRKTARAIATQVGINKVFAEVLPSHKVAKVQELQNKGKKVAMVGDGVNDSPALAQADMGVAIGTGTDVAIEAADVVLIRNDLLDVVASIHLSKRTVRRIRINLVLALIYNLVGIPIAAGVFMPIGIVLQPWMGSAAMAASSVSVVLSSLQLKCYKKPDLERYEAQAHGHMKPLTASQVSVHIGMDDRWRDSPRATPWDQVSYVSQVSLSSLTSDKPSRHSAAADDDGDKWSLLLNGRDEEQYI

B1: TAMRA-tagged Pept 73–92 (residues 73–92 of the α-crystallin domain of αB-crystallin, CRYAB) (peptide)
peptide: DRFSVNLDVKHFSPEELKVK
modifications: 5-TAMRA tagged
B2: TAMRA-tagged control peptide 2 (scrambled sequence of Pept 73–92) (peptide)
peptide: DLPLKVNVEDKFHRSFVESK
modifications: 5-TAMRA tagged
B3: TAMRA-tagged control peptide 1 (inverted sequence of Pept 73–92) (peptide)
peptide: KVKLEEPSFHKVDLNVSFRD
modifications: 5-TAMRA tagged

Legend:
GFP-tagged ATP7B [1] = biological target: GFP-tagged ATP7B (UniProt P35670); experiment: co-IP; COS7 cells transfected with GFP-tagged ATP7B forms, incubated with 12.5 μM TAMRA-tagged peptide, lysed 48 h post-transfection, immunoprecipitated with anti-GFP antibody; peptide detected in the precipitate by nanoLC-ESI-Q-Orbitrap SIM-MS at m/z 560.69 ± 0.6 (5+) and MS/MS; only the binder purified
GFP-tagged ATP7B-H1069Q [2] = biological target: GFP-tagged ATP7B-H1069Q (UniProt P35670); experiment: as above
GFP-tagged ATP7B [3] = biological target: GFP-tagged ATP7B (UniProt P35670); experiment: FRET or BRET; FLIM-FRET, donor GFP on ATP7B forms, acceptor TAMRA on the peptide; COS7 cells incubated with 12.5 μM peptide, fixed with 2% paraformaldehyde 48 h post transfection; only the binder purified
GFP-tagged ATP7B-H1069Q [4] = biological target: GFP-tagged ATP7B-H1069Q (UniProt P35670); experiment: as above

Binder | binding (GFP-tagged ATP7B [1]) | binding (GFP-tagged ATP7B-H1069Q [2]) | binding (GFP-tagged ATP7B [3]) | binding (GFP-tagged ATP7B-H1069Q [4])
B1 | binds | binds | – | –
B2 | no binding (tested: 12.5 μM) | no binding (tested: 12.5 μM) | no binding (tested: 12.5 μM) | no binding (tested: 12.5 μM)
B3 | no binding (tested: 12.5 μM) | no binding (tested: 12.5 μM) | no binding (tested: 12.5 μM) | no binding (tested: 12.5 μM)
